Measurements as given in PubChem BioAssay AID1030 (National Center for Advancing Translational Sciences (NCATS), 2008).
The campaign covered roughly 220,000 compounds. About 16,000 (7.3%) were called active. The inconclusive results got no clear call from the source; some entries with a clear call stand among them for comparison. Calls come from the whole dose curve; as a rule, active = well fitted inhibition curve with a large enough effect (not every such curve was filed as active); inconclusive = small, poorly fitted or top-dose-only effect, or another doubt; inactive = no such curve, though single readings can be large or run the other way. Potencies of inconclusive entries are left out as doubtful fits.

Target: Aldehyde dehydrogenase 1A1 (Homo sapiens) (UniProt P00352)
Sequence of UniProt P00352 (P00352 whole entry, looked up): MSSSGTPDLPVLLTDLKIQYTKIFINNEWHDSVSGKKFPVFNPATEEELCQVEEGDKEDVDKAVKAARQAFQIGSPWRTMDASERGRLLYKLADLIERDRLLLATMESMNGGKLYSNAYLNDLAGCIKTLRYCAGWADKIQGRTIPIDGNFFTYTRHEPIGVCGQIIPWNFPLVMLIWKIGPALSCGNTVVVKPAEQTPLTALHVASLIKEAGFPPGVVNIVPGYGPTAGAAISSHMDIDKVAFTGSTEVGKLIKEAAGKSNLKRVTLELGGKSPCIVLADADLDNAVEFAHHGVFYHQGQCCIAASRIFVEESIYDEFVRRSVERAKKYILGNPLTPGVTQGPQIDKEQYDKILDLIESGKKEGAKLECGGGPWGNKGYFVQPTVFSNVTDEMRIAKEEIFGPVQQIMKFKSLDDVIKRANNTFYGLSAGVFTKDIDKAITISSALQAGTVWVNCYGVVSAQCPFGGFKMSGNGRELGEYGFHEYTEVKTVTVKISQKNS
Experiment: qHTS Assay for Inhibitors of Aldehyde Dehydrogenase 1 (ALDH1A1)
Details: Purified ALDH1A1, NADH fluorescence, propionaldehyde substrate; series mostly up to 75.3 µM
Potency is the fitted concentration of half-maximal effect; tags give direction and shape of the fitted curve.

Compound | Potency
CC1=C(C(=O)O)N2C(=O)C(NC(=O)c3ccn(C)n3)C2SC1 (stereo not given) | inconclusive [inhibitor, single point]
O=C(Nc1nccs1)c1ccc(Br)o1 | inconclusive [inhibitor, single point]
CC1CC(C)CN(C(=O)C(C)N(C)CC(=O)Nc2ccc(Cl)cc2)C1 (stereo not given) | inconclusive [inhibitor, single point]
CCCn1c(=NC(=O)c2ccc3c(c2)OCO3)c(C#N)cc2c(=O)n3cccc(C)c3nc21 | inconclusive [inhibitor, full curve]
CC1(C)S[C@H]2C(NC(=O)[C@@H](N)c3ccc(O)cc3)C(=O)N2[C@@H]1C(=O)O (stereo not given in full) | inactive
C/C(=N/NC(=O)CSc1ccccn1)c1ccc([N+](=O)[O-])cc1 | active: 20 µM
Cc1oc2cc(O)ccc2c(=O)c1-c1nncn1-c1ccccc1 | inconclusive [inhibitor, single point]
CCc1cc(C(=O)Cc2cnn(-c3ccccc3)c2)c(O)cc1O | inconclusive [inhibitor, partial curve]
CC(C)N(C(=S)NCc1ccccc1)c1ccccc1 | inconclusive [inhibitor, single point]
Cc1cccc(NC(=O)C2CCN(c3nccc(C)n3)CC2)c1 | inconclusive [inhibitor, partial curve]
O=C(CCCn1c(=O)[nH]c2cc(Cl)ccc2c1=O)NCCCN1CCCC1=O | inactive
O=C(NCc1ccccc1)c1ccccc1C(=O)c1ncc[nH]1 | inactive
CCN(CC)CCNC(=O)c1cc(Br)c(N)cc1OC | inactive
CCN1C(=O)/C(=C2\Sc3ccccc3N2CC)OC1=S | inconclusive [inhibitor, partial curve]
CCOC(=O)c1c(NC(=O)c2ccco2)sc(C(=O)N2CCCC2)c1C | inconclusive [inhibitor, partial curve]
CCc1nc(N2CCOCC2)c(C#N)c2c1COC(C)(C)C2 | inconclusive [inhibitor, partial curve]
CCOC(=O)c1sc2nc(SCC#N)n(CCCN3CCCC3=O)c(=O)c2c1C | active: 0.794 µM
O=C(NCc1ccc2c(c1)OCO2)C1CC(c2ccccc2O)=NO1 (stereo not given) | active: 11.2 µM
CC(=O)N1CCN(c2ccc(NC(=O)c3ccc(C)cc3)cc2)CC1 | inconclusive [inhibitor, partial curve]
Cc1cc(=O)[nH]c(N/N=C/c2c[nH]c3ccccc23)n1 | inconclusive [inhibitor, partial curve]
CCN(CC)c1nc2ccccc2c(N)c1-c1ccccc1 | active: 14.1 µM
Cc1ccc(S(=O)(=O)N2CCN(C(=O)CSc3nc4ccccc4c(=O)[nH]3)CC2)cc1 | active: 3.16 µM
O=C(CSc1nnnn1C1CCCCC1)NCCc1ccccc1 | active: 10 µM
Cc1ccc2nsnc2c1S(=O)(=O)NC1CC1 | inactive
CN(C)c1ccc(/C=N/NC(=O)c2ccnn2C)cc1 | inconclusive [inhibitor, single point]

Compound | Potency
Cc1ccccc1-c1nc(CN2CCCC(C(=O)NCCCN3CCOCC3)C2)c(C)o1 (stereo not given) | inactive
CCCC(=O)N(C)c1nnc(-c2ccc(OC)cc2)s1 | active: 28.2 µM
Cc1cc(C)c2c(c1)N[C@H](c1cccs1)[C@@H]1CCO[C@H]21 | inactive
CN1CCc2c(sc3c2C(=O)NC(c2cccc(OC(=O)c4cccs4)c2)N3)C1 (stereo not given) | inconclusive [inhibitor, single point]
Nc1cnccc1C(=O)O | inconclusive [inhibitor, partial curve]
Cc1ccc(CNC(=O)c2cc3c(=O)n4ccccc4nc3n(CC3CCCO3)c2=N)cc1 (stereo not given) | inconclusive [inhibitor, partial curve]
Fc1ccc(CSc2ccc(-c3ccco3)nn2)cc1 | inconclusive [inhibitor, single point]
CCOc1ccc2nc(N3CCCN(C(=O)Nc4ccccc4C)CC3)c(C#N)cc2c1 | inconclusive [inhibitor, single point]
COc1cccc(-c2cc(C(F)(F)F)nc(-n3cc(C)cn3)n2)c1 | inconclusive [inhibitor, single point]
CCC(C)NC(=O)CCS(=O)(=O)c1ccc(Br)s1 (stereo not given) | inactive
Oc1ccc(-c2[nH]ncc2-c2cnn(-c3ccccc3)c2)c(O)c1 | inconclusive [inhibitor, single point]
O=C(CNC(=O)Cc1ccc(Cl)cc1)NCc1ccco1 | inactive
Cc1ccccc1NC(=O)CC1c2ccccc2CC(C)(C)N1C (stereo not given) | inconclusive [inhibitor, single point]
Cn1nc(C(F)(F)F)c2cc(C(=O)Nc3ccc(Cl)cc3)sc21 | inactive
Cc1noc(C)c1COc1cccc(C(=O)Nc2ccc(OCc3ccccc3)cc2)c1 | inactive
CN(c1ccc(Cl)cc1)c1cc(=O)n(C)c2ccccc12 | inactive
Cc1noc(C)c1C(=O)N1CCC2(CC1)CN(c1ncccn1)C2 | inconclusive [inhibitor, partial curve]
CC1CCCC(C)N1C(=O)c1cc2ncc(CCCl)cn2n1 (stereo not given) | inconclusive [inhibitor, partial curve]
Cc1nn2c(-c3cccc(NC(=O)CSc4nc5ccccc5o4)c3)nnc2c2ccccc12 | inconclusive [inhibitor, single point]
CC(Nc1ccccc1)c1cccnc1 (stereo not given) | inactive
CCOC(=O)c1c(C)[nH]c(C(=O)CSc2nnc(C3CC3)n2N)c1C | inactive
CC1S/C(=C(\C#N)C(=O)NCc2ccco2)N(c2ccc(F)cc2)C1=O (stereo not given) | inconclusive [inhibitor, single point]
COc1ccc(-c2nnc(SC(=O)N3c4ccccc4Sc4ccccc43)o2)cc1 | inconclusive [inhibitor, partial curve]
Cc1sc2ncn(CC(=O)NCC3COc4ccccc4O3)c(=O)c2c1S(=O)(=O)N1CCCCC1 (stereo not given) | inactive
COc1ccc(CCNC(=O)C2CCN(c3ccc(N4CCOCC4)nn3)CC2)c(OC)c1 | inconclusive [inhibitor, single point]

Compound | Potency
CC(CCc1ccccc1)NC(=O)COC(=O)c1cccc2ccccc12 (stereo not given) | inconclusive [inhibitor, single point]
CC1=C(n2nnc3ccccc32)C(c2ccccc2)C(C#N)=C(N)O1 (stereo not given) | active: 12.6 µM
CCN(CC)CCNC(=O)c1cn(CC)c2ccc(S(=O)(=O)N(C)C)cc2c1=O | inconclusive [inhibitor, single point]
CCC(=O)NC(=S)NNC(=O)c1ccc(NC(=O)c2ccccc2)cc1 | inconclusive [inhibitor, single point]
Cc1c(C(=O)NC(=S)Nc2ccc(NC(=O)c3cccs3)cc2)oc2ccccc12 | active: 1.26 µM
COc1ccc(C(=O)Nc2nc(C)cs2)cc1S(=O)(=O)N1CCCC1 | inconclusive [inhibitor, single point]
COc1ccc(N2C(=O)/C(=C/c3cccs3)NC2=S)cc1 | active: 3.16 µM
NNC(=O)C(Cc1c[nH]c2ccccc12)NC(=O)c1ccccc1 (stereo not given) | inactive
Cc1ccc(/C=N/N=C/c2ccc(C)cc2)cc1 | inactive
Cc1cc(C)n(C(=O)CCN2C(=O)c3ccccc3C2=O)n1 | inconclusive [inhibitor, single point]
O=C1CCCC/C1=C/Nc1ccc(S(=O)(=O)Nc2ncccn2)cc1 | active: 22.4 µM
CC(C)CN(CC(C)C)C(=O)Cc1coc2ccc3ccccc3c12 | inconclusive [inhibitor, partial curve]
CN1CCN(NC(=O)CSc2ccc(Cl)cc2Cl)CC1 | inactive
Nc1nc2c(Cl)cc(Cl)cc2s1 | inconclusive [inhibitor, partial curve]
Cn1cc(CN2CCN(Cc3cccnc3)CC2)c(-c2ccc3c(c2)OCCO3)n1 | inactive
COc1ccccc1CNc1ncnc2ccc(-c3ccc(N(C)C)cc3)cc12 | inconclusive [inhibitor, single point]
Cc1ccc(S(=O)(=O)CC(=O)c2ccc(C)c([N+](=O)[O-])c2)cc1 | inconclusive [inhibitor, single point]
O=C(CSCc1ccc(Cl)cc1)NCCSCc1ccco1 | active: 11.2 µM
Cc1cc(N2CCOCC2)ccc1/C=C1\NC(=O)N(Cc2ccccc2F)C1=O | inconclusive [inhibitor, full curve]
Cc1sc2nc(C)n(/N=C/c3ccc(O)cc3)c(=O)c2c1C | inconclusive [inhibitor, single point]
O=C1N=C(N2CCOCC2)S/C1=C\c1ccc(OS(=O)(=O)c2ccccc2)cc1 | active: 28.2 µM
Cc1cc(=O)[nH]c(SCC(=O)Nc2nc3ccccc3s2)n1 | inconclusive [inhibitor, single point]
CCCNS(=O)(=O)c1cc(Cl)ccc1OC | inactive
Cn1cc([N+](=O)[O-])c(C(=O)Nc2ccc3c(c2)OCCO3)n1 | inconclusive [inhibitor, single point]
COc1ccc(C(=O)Nc2oc(-c3ccccc3)c(-c3ccccc3)c2C#N)cc1OC | inconclusive [inhibitor, single point]
